Reference: PubChem BioAssay (NCATS)
Where “and” joins values, the source holds several entries; their conditions need not be identical. Equal values may be shown once. Inconclusive means that the source gave no clear call. Such entries were picked first, then a sample of the others. For some of these results: Potencies beside an inconclusive call are fits to weak or partial responses and may not hold up. Calls of active or inactive are those of the source. Unless noted, calls come from the whole dose curve; as a rule, active = well fitted curve in the direction sought with a large enough effect; inconclusive = small, poorly fitted or top-dose-only effect, or another doubt; inactive = no such curve, though single readings can be large; an effect the other way counts as inactive or inconclusive.

Legend:
[1] = NFAT Signaling Pathway (AID 444; active = well fitted curve in either direction with a large enough effect, not every such curve was filed as active; inconclusive = small, poorly fitted or top-dose-only effect, or another doubt;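 note: carbachol stimulus at about its EC50 of 1 µM final; % is set by controls: 0 for no effect and ±100 for the full control effect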); conditions: Jurkat NFAT-bla M1, carbachol, beta-lactamase ratio, 5 h; at 7.69 µM (top of the series) unless noted
In short: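 Read-out: CCF4 FRET ratio (460 nm/530 nm) after 1 h RT dye loading, used for %activity and AC50 from titration series. Cells: Jurkat NFAT-β-lactamase/M1 line, treated with compound plus 1 uM carbachol for 5 h, 37 °C.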

[2] = qHTS for differential inhibitors of proliferation of Plasmodium falciparum line 7G8 (AID 1815);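 note: parasite growth measured after three days of incubation; plate controls were vehicle wells for no effect and reference inhibitor wells for full effect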
[3] = qHTS for differential inhibitors of proliferation of Plasmodium falciparum line D10 (AID 1877);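 note: parasites grown with compound for 72 h before DNA staining; plate controls were vehicle wells for no effect and reference inhibitor wells for full effect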
[4] = qHTS for differential inhibitors of proliferation of Plasmodium falciparum line W2 (AID 1883); conditions: Potency: Plasmodium falciparum W2 proliferation inhibition;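 note: potency is the fitted concentration of half-maximal effect; parasites grown with compound for 72 h before lysis and staining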
[5] = qHTS for differential inhibitors of proliferation of Plasmodium falciparum line HB3 (AID 1886); conditions: Potency: Plasmodium falciparum HB3 proliferation inhibition;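 note: parasites grown with compound for 72 h before SYBR Green readout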; note: potency is the fitted concentration of half-maximal effect;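 for activity change, negative = inhibition: plate controls were vehicle for no effect and reference inhibitor for full effect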
[6] = target: Ferritin light chain (Equus caballus) (UniProt P02791); assay: qHTS Validation Assay for Identification of Novel General Anesthetics (AID 2323); note: % is set by controls: 0 for no effect and ±100 for the full control effect
Chain of UniProt P02791 (P02791 2-175 limits assumed): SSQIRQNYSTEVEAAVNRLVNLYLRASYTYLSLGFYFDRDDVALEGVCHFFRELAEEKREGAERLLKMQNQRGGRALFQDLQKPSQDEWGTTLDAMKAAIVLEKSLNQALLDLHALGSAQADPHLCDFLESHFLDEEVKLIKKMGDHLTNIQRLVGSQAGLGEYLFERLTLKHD
In short: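 Normalized fluorescence response, scaled between free 1-AMA and 1-AMA/apoferritin complex, fitted to a four-parameter Hill equation for concentration-effect values. Binding mix: 10 uM horse-spleen apoferritin, 50% saturated 1-AMA in PBS; read 380/535 nm after 10 min.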

[7] = target: RecQ-like DNA helicase BLM (Homo sapiens) (UniProt P54132); assay: qHTS Validation Assay for Inhibitors of Bloom's syndrome helicase (BLM) (AID 2364); note: potency is the fitted concentration of half-maximal effect;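 for activity change, negative = inhibition: plate controls were DMSO vehicle for no effect and enzyme-free control for full effect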
Chain of UniProt P54132 (P54132 whole entry, looked up): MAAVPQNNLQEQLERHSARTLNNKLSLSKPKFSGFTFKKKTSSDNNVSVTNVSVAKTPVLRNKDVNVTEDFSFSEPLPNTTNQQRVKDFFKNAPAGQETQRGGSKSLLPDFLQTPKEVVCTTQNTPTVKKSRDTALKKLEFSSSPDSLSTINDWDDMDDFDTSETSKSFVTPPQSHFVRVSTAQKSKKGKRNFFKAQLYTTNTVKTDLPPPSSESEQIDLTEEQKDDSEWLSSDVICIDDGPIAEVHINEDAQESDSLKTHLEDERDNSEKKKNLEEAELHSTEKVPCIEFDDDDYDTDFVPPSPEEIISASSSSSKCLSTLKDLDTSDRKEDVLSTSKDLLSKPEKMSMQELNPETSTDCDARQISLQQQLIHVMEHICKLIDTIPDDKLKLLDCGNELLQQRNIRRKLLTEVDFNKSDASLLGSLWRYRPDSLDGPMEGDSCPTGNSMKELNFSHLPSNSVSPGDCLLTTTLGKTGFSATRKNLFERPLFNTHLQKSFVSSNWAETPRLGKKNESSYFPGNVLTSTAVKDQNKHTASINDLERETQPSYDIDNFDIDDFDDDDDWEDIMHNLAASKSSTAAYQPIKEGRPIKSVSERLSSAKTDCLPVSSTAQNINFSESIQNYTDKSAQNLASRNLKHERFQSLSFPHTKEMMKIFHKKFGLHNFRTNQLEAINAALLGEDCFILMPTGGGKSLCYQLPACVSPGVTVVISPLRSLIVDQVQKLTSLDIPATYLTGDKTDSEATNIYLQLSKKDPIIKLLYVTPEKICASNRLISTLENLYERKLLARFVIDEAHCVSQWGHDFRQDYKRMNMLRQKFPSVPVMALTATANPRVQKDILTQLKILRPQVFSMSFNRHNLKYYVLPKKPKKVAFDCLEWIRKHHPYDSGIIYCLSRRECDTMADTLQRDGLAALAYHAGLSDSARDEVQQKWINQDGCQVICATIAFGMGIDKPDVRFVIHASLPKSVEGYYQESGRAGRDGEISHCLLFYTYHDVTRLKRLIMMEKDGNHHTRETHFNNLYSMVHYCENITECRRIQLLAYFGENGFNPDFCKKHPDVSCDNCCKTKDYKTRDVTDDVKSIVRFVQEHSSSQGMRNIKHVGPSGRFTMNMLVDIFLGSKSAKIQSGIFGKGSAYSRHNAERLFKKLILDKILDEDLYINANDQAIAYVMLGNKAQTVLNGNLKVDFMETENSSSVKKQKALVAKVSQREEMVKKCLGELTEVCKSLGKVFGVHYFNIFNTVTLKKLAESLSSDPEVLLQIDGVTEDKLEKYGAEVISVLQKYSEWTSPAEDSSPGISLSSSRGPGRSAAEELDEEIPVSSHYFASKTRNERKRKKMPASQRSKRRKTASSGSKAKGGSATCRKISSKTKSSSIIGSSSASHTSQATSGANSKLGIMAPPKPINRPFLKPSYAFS
In short: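 Forked 20-bp duplex substrate (200 nM, TAMRA/BHQ-2) plus 2 mM ATP added after 15 min compound preincubation with 50 nM enzyme, pH 8.0, poly(dI-dC) 2.5 ug/ml. Strand separation followed by fluorescence (525/598 nm) over 2 h, normalized to enzyme-free and DMSO controls.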

[8] = Quantitative high throughput screen for delayed death inhibitors of the malarial parasite plastid, 48 hour incubation (AID 488752); note: nearly all actives have a fitted effect of over 65% in size; note: potency is the fitted concentration of half-maximal effect
In short: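 One-generation (48 h) growth assay: a decrease in luciferase signal from an integrated reporter in P. falciparum-infected red cells (0.1% parasitemia, 2% hematocrit) after compound exposure at 37 C indicates parasite inhibition.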

[9] = target: Cytochrome P450 1A2 (Homo sapiens) (UniProt P05177); assay: p450-cyp1a2 (AID 410; calls by dose curve; note: potency is the fitted concentration of half-maximal effect)
Chain of UniProt P05177 (P05177 whole entry, looked up): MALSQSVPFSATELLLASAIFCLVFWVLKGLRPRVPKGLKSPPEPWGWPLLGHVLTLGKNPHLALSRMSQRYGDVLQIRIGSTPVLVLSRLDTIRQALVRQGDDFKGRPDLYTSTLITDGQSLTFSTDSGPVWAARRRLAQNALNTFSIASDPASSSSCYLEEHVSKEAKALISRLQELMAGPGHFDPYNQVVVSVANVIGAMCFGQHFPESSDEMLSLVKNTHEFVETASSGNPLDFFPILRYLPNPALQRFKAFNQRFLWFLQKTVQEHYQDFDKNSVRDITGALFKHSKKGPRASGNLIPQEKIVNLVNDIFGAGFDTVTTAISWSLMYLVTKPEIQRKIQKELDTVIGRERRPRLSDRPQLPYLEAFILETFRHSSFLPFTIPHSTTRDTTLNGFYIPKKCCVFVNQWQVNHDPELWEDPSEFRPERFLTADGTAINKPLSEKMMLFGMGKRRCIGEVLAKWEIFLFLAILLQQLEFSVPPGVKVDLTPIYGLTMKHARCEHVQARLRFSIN
In short: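 Luminescent demethylation readout: Luciferin-ME (100uM, equal to Km) turned over by 20nM CYP1A2 for 60 min at room temperature after NADPH regeneration addition, following 10 min compound preincubation. Normalization used 57 uM furafylline as full inhibition.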

[10] = Stat Signaling Pathway (AID 446; active = well fitted curve in either direction with a large enough effect, not every such curve was filed as active; inconclusive = small, poorly fitted or top-dose-only effect, or another doubt;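 note: ME-180 cervical cancer cells given 40 pM IL-6 alongside compound; SIE-controlled beta-lactamase reporter measured as 460/530 nm FRET emission ratio; top concentration of the series differs between compounds; % is set by controls: 0 for no effect and ±100 for the full control effect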); conditions: ME-180 (cervical carcinoma) SIE beta-lactamase reporter, IL-6 stimulated, 5 h; at 38 µM (top of the series) unless noted
In short: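 Emission at 460 and 530 nm (excitation 405 nm) reports SIE-controlled beta-lactamase in ME-180 cells. Cells received compound with 40 pM IL-6 for 5 hrs at 37 C; data scaled between 300 pM IL-6 and 125 nM JAK-inhibitor controls.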

[11] = qHTS Assay for Identification of Small Molecule Agonists for Thrombopoietin (TPO) Signaling Pathway (AID 917); note: % is set by controls: 0 for no effect and ±100 for the full control effect
In short: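 Human TPO receptor–transfected Ba/F3 cells (murine, IL-3-dependent) in IL-3-deficient medium; compounds plus TPO at EC50, 26 pM final; 24 hrs, 37 C; GpIIb-luciferase luminescence after 10 min RT detection.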

[12] = qHTS Assay for Identification of Small Molecule Antagonists for Thrombopoietin (TPO) Signaling Pathway (AID 918); conditions: TPO-dependent cell signaling reporter, antagonist mode; activity change, negative = inhibition: at 38.5 µM (top of the series); note: nearly all actives have a fitted effect of over 60% in size
In short: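 Inhibition read as reduced luciferase luminescence after 24 h at 37 C in IL-3-deprived Ba/F3 cells carrying human TPO receptor and GPIIb-promoter reporter, stimulated with 26 pM TPO (final, its EC50) alongside compound.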

[13] = target: Muscarinic acetylcholine receptor M1 (Rattus norvegicus) (UniProt P08482); assay: qHTS Assay for Antagonists of Acetylcholine Muscarinic M1 Receptor: Kinetic Measurement of Intracellular Calcium Response (AID 943); note: potency is the fitted concentration of half-maximal effect; nearly all actives have a fitted effect of over 75% in size
Chain of UniProt P08482 (P08482 whole entry, looked up): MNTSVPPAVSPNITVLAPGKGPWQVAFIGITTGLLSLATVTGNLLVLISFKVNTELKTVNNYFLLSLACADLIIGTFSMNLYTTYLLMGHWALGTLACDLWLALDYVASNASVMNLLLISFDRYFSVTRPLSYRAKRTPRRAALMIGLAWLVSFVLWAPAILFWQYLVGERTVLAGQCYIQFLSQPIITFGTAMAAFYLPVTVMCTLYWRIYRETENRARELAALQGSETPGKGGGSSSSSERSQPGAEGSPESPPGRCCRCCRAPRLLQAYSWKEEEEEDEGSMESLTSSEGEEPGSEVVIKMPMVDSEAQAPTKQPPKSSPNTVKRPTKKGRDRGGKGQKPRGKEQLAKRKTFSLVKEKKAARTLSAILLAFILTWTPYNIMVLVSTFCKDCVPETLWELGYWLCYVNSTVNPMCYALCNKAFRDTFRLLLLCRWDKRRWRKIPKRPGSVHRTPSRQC
In short: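 Antagonism measured as reduction of carbachol-evoked (EC80, 100 nM final) calcium flux in rat M1-CHO cells after 10 min compound exposure. Fluo-4 signal read kinetically; ratio of maximal to basal fluorescence.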

[14] = target: Muscarinic acetylcholine receptor M1 (Rattus norvegicus) (UniProt P08482); assay: qHTS Assay for Antagonists of Acetylcholine Muscarinic M1 Receptor: Measurement of IP-One Response (AID 944); note: nearly all actives have a fitted effect of over 75% in size
[15] = target: Endonuclease 4 (Escherichia coli (strain K12)) (UniProt P0A6C1); assay: Counterscreen for APE1 Inhibitors: qHTS Validation Assay for Inhibitors of Endonuclease IV (AID 1708); note: potency is the fitted concentration of half-maximal effect
In short: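 Incision of a double-stranded 50 nM TAMRA/BHQ-2 abasic substrate was followed kinetically (525/598 nm, reads every 60 s) after 15 min enzyme–compound preincubation with 2 nM EndoIV in pH 7.5 Tris buffer with MgCl2, DTT and Tween-20; concentration-response format.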

[16] = NCATS anti-infectives library activity on the primary C. elegans qHTS viability assay (AID 1745855; calls by dose curve)
In short: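 GFP read-out by 488 nm laser cytometry at day 0, 3 and 7, gated on object perimeter, area and peak intensity, scored viability of PE254-GFP-FLuc worms exposed to compound in S medium with bacterial capsules at 21 °C.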

[17] = Cell Viability - LYMP2-023 (AID 975);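 note: cellular ATP measured by luciferase luminescence as viability proxy; cells exposed to compound for 24 hours at 37 °C; plate controls were DMSO only for no effect and 92 µM tetraoctylammonium bromide control for full effect; nearly all actives have a fitted effect of over 55% in size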
In short: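 Intracellular ATP, read by CellTiter-Glo luminescence, reports viability after 24 hr compound exposure at 37 C. 2500 lymphoblastoid cells/well (LYMP2-023) seeded 5 hr beforehand; Hill fits give AC50; positive control tetraoctylammonium bromide.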

[18] = Cell Viability - LYMP2-026 (AID 989); conditions: LYMP2-026 lymphoblastoid cell viability, qHTS; activity change, negative = cytotoxic: at 92.2 µM (top of the series); note: % is set by controls: 0 for no effect and ±100 for the full control effect; nearly all actives have a fitted effect of over 50% in size
In short: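 Cytotoxicity read as ATP-dependent luminescence (CellTiter-Glo, 30 min room temperature) after 24 h compound treatment at 37 C. LYMP2-026 lymphoblastoid line seeded at 2500 cells/well; AC50 derived by standard Hill equation.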

[19] = target: Peroxisome proliferator-activated receptor gamma (Homo sapiens) (UniProt P37231); assay: qHTS assay for small molecule antagonists of peroxisome proliferator-activated receptor gamma signaling (AID 588537; active = well fitted inhibition curve with a large enough effect in the signal ratio, with a control signal flat, not every such curve was filed as active; inconclusive = small, poorly fitted or top-dose-only effect, or effect the other way, or a change in a side signal; the % refers to the signal ratio;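 note: reporter cells co-stimulated with 50 nM rosiglitazone agonist during compound treatment; % of control where 0% means no effect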); conditions: HEK293 PPARg-UAS-bla, beta-lactamase ratio, antagonist mode; activity, negative = inhibition: at 76.8 µM (top of the series)
In short: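 Antagonist-mode β-lactamase reporter screen run as a titration series. HEK293 PPARγ-UAS-bla cells are stimulated with rosiglitazone (50 nM final) for 16 h, then CCF4 is read at 460/530 nm. Data are scaled between DMSO and rosiglitazone and fitted to the Hill equation.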

[20] = qHTS assay for small molecule agonists of the antioxidant response element (ARE) signaling pathway (AID 651741; active = well fitted activation curve with a large enough effect in the signal ratio; inconclusive = small, poorly fitted or top-dose-only effect, or effect the other way, or a change in a side signal; the % refers to the signal ratio; note: potency is the fitted concentration of half-maximal effect); conditions: HepG2 ARE-bla reporter, beta-lactamase FRET ratio, 16 h; activation: at 96 µM (top of the series)
In short: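 Beta-lactamase reporter under ARE control in HepG2 cells, 2,000 per well, was induced by 16 h compound treatment at 37 C. Read-out was fluorescence from LiveBLAzer B/G FRET substrate after 2 h at room temperature.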

[21] = qHTS assay to identify small molecules that stimulate interleukin-8 (IL-8) secretion (AID 651758; active = well fitted activation curve with a large enough effect in the signal ratio; inconclusive = small, poorly fitted or top-dose-only effect, or effect the other way, or a change in a side signal; the % refers to the signal ratio; note: 0% is about no effect); conditions: HTRF ratio (665/615); activation: at 92.2 µM (top of the series)
In short: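 Secreted IL-8 measured homogeneously by TR-FRET (two labelled anti-IL-8 antibodies, 1-3 h at room temperature) after a 16 h, 37 C compound treatment of THP-1 cells at 2000 cells/well.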

[22] = qHTS assay for small molecule antagonists of the retinoid-related orphan receptor gamma (ROR-gamma) signaling pathway - cell viability counter screen (AID 720652; active = well fitted curve in the direction sought with a large enough effect in the repeat runs; inconclusive = weak or mixed curves; inactive = no such curve, though single readings can be large; an effect the other way counts as inactive or inconclusive;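 note: potency is the fitted concentration of half-maximal effect; compound exposure lasted 16 hr before ATP read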)
In short: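 Cytotoxicity counter screen: intracellular ATP (CellTiter-Glo luminescence) measured in the doxycycline-induced CHO RORE-luciferase reporter line after 16 hr compound exposure at 37 C, 5% CO2.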

[23] = target: Nuclear receptor subfamily 1 group I member 3 (Homo sapiens) (UniProt Q14994); assay: Primary qHTS for antagonist of constitutive androstane receptor (CAR) against the NCATS DSHEA and TCM libraries (AID 1794836); note: potency is the fitted concentration of half-maximal effect
Chain of UniProt Q14994 (Q14994 whole entry, looked up): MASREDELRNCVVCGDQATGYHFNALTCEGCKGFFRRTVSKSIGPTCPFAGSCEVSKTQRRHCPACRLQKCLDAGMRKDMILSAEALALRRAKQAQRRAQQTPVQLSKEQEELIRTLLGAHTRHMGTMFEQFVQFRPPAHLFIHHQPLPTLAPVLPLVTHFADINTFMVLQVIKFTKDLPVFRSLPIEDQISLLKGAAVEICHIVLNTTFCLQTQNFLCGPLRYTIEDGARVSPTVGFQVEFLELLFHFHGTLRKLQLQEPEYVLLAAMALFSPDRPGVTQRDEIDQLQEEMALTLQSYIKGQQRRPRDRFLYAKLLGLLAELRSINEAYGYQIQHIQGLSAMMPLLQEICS
In short: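 Antagonist mode: CAR reporter luminescence (ONE-Glo) in HepG2-CYP2B6-hCAR cells stimulated with 48 uM CITCO (final) over 24 h at 37 C, compounds titrated; viability read first by CellTiter-Fluor fluorescence.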

[24] = target: Cytochrome P450 1A2 (Homo sapiens) (UniProt P05177); assay: qHTS for inhibitors of CYPIA2 against the NCATS DSHEA and TCM libraries (AID 1919976); note: potency is the fitted concentration of half-maximal effect
In short: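 Reaction started with 1x NADPH regeneration solution and run 30-45 min, room temperature, protected from light, after compounds sat 15 min with CYP1A2 and pro-luciferin substrate. P450-Glo detection gave luminescence; furafylline served as control.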

[25] = qHTS for differential inhibitors of proliferation of Plasmodium falciparum line GB4 (AID 1816); conditions: Potency: Plasmodium falciparum GB4 proliferation inhibition;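 note: potency is the fitted concentration of half-maximal effect; parasite growth measured after 72 h incubation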
[26] = qHTS for differential inhibitors of proliferation of Plasmodium falciparum line Dd2 (AID 1882); conditions: Potency: Plasmodium falciparum Dd2 proliferation inhibition; note: potency is the fitted concentration of half-maximal effect; nearly all actives have a fitted effect of over 65% in size
In short: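 SYBR Green DNA fluorescence (ex 485, em 535 nm) after overnight lysis quantifies parasite growth; compound exposure lasted 72 h at 37 C on infected red cells at 2.5% hematocrit, 0.3% parasitemia (final). Artemisinin 0.29 uM and vehicle wells define normalization.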

[27] = Validation screen for inhibitors of Lassa infection (AID 463096; calls by dose curve; note: potency is the fitted concentration of half-maximal effect)
[28] = Validation screen for small molecules that induce DNA re-replication in MCF 10A normal breast cells (AID 463097); note: potency is the fitted concentration of half-maximal effect; nearly all actives have a fitted effect of over 60% in size
In short: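 Following 48 hr compound incubation (37 C, 5% CO2), MCF 10A cells receive Hoechst for 40 min at 37 C. Nuclei are then scanned (excitation 405 nm, emission 500-530 nm) for total fluorescence intensity.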

[29] = target: M-phase phosphoprotein 8 (Homo sapiens) (UniProt Q99549); assay: qHTS Validation Assay for Inhibitors for MPP8 Chromodomain Interactions with Methylated Histone Tails (AID 488949); note: potency is the fitted concentration of half-maximal effect; nearly all actives have a fitted effect of over 55% in size
Chain of UniProt Q99549 (Q99549 whole entry, looked up): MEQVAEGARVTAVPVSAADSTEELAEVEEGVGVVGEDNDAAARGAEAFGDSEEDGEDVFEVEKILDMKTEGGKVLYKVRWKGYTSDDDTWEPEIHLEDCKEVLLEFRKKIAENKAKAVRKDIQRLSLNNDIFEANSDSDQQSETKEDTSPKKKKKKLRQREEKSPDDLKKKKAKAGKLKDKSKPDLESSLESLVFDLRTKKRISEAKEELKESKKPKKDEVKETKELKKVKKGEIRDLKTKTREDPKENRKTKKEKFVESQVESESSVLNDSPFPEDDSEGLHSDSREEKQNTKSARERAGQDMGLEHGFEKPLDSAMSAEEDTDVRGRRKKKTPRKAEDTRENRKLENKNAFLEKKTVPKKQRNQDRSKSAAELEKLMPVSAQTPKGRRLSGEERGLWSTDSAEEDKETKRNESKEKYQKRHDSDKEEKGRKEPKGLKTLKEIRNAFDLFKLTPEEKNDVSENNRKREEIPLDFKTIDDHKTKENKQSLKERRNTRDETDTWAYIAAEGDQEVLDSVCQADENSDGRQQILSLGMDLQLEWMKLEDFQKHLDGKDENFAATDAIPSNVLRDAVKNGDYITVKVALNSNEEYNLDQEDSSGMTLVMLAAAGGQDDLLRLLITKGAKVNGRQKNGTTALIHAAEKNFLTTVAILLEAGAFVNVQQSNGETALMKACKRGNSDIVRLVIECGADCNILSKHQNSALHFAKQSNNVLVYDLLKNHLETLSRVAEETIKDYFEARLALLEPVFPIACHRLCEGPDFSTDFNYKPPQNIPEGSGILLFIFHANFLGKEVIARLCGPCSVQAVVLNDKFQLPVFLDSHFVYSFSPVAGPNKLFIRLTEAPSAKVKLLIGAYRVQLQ
In short: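 Chemiluminescent proximity assay: histidine-tag capture via nickel acceptor beads, biotin peptide via streptavidin donor beads. Protein and peptide each at 50 nM, pH 7.4, with 30 min incubations at room temperature for complex formation, compound exposure and bead binding.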

[30] = Validation screen for small molecules that induce DNA re-replication in SW480 colon adenocarcinoma cells (AID 504364); note: potency is the fitted concentration of half-maximal effect
In short: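 Image-based DNA content read-out: Hoechst stain 40 min, total nuclear fluorescence intensity (ex 405 nm, em 500-530 nm) after 48 h compound exposure of 250 SW480 cells/well at 37 C, 5% CO2, versus DMSO vehicle.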
Tags give direction and shape of the fitted curve.

## CC[C@@H]1C(=O)OC[C@@H]1Cc1cncn1C
[1]
  activity change, negative = inhibition: active: 75.4% [activator] [at 17.2 µM] and inconclusive: 102% [activator] [at 17.2 µM]
[2]
  Potency: inactive
[3]
  Potency: inactive
[4]
  Potency: inconclusive: 224 nM [inhibitor, partial curve, poor fit] and inconclusive: 11.2 µM [inhibitor, partial curve]
[5]
  Potency: inactive and inconclusive: 6.31 µM [inhibitor, partial curve, poor fit]
[6]
  Potency: inactive
[7]
  Potency: inconclusive: 2.8 nM [inhibitor, full curve, poor fit] and inactive
[8]
  Potency: inactive

## N[C@H](CCCCCP(=O)(O)O)C(=O)O
[9]
  Potency: inconclusive: 39.8 µM [decreasing]
[10]
  activity, negative = inhibition: inconclusive: 65.4% [activator]
[11]
  Potency: inactive
[12]
  activity change, negative = inhibition: inconclusive: -9.68% [phenotype inactive] and inconclusive: -12.5% [phenotype inactive]
[13]
  Potency: inconclusive: 0.0178 µM [inhibitor, full curve, poor fit]
[14]
  Potency: inactive
[15]
  Potency: inconclusive: 12.6 µM [inhibitor, partial curve, poor fit]

## O=NN1CCCC1c1cccnc1 (centres undefined)
[16]
  Potency: inactive

## C=CCc1ccc2c(c1)OCO2
[17]
  Potency: inactive
[18]
  Potency: inactive
[19]
  activity, negative = inhibition: inconclusive: 13.2%
[20]
  Potency: inconclusive: 34.4 µM [inhibitor, partial curve, poor fit]
[21]
  Potency: inactive
[22]
  Potency: inconclusive: 75 µM [rising, partial curve, poor fit]
[23]
  Potency: inconclusive: 3.55 µM [inhibitor, full curve]
[24]
  Potency: active: 15.8 µM

## CC(C)[C@@]1(NC(=O)[C@@H]2C[C@@H]3c4cccc5[nH]cc(c45)C[C@H]3N(C)C2)O[C@@]2(O)C3CCCN3C(=O)[C@H](Cc3ccccc3)N2C1=O (some centres undefined)
[15]
  Potency: inactive
[25]
  Potency: active: 1.12 µM
[26]
  Potency: active: 1.41 µM
[5]
  Potency: active: 0.891 µM
[7]
  Potency: inconclusive: 44.7 µM [inhibitor, partial curve]
[27]
  Potency: inconclusive: 31.6 µM [inhibitor, single point]
[28]
  Potency: inconclusive: 20 µM [activator, single point]
[8]
  Potency: active: 1.65 µM
[29]
  Potency: inconclusive: 50.1 µM [inhibitor, partial curve]
[30]
  Potency: inconclusive: 16.4 µM [activator, single point]
